# From the supplement of paper PMC12217912
# The list shows a part of the results. Sequences were assembled here from the parent chain. Values near 0.05 are background.
# B1: TEV protease; numbered along this chain (parent)
# chain: MGESLFKGPRDYNPISSSICHLTNESDGHTTSLYGIGFGPFIITNKHLFRRNNGTLVVQSLHGVFKVKDTTTLQQHLVDGRDMIIIRMPKDFPPFPQKLKFREPQREERICLVTTNFQTKSMSSMVSDTSCTFPSGDGIFWKHWIQTKDGQCGSPLVSTRDGFIVGIHSASNFTNTNNYFTSVPKNFMELLTNQEAQQWVSGWRLNADSVLWGGHKVFMVKPEEPFQPVKEATQL
# Variants of: B1
# Assay: raw area under fraction-flipped curve 0-4 h after induction (AUC4h, not background-subtracted), DNA-recorder readout of cleavage of the substrate (dimensionless); higher = more cleavage of the substrate by the protease variant
# Settings: temperature: 34 °C; time window: 0-4 h after rhamnose induction
# 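Also: Bxb1 expression induced with 0.2% (w/v) L-rhamnose at OD600 near 0.5, cultures sampled hourly, flipped fraction per protease–substrate barcode pair counted by paired-end Illumina sequencing.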
Variant,area with substrate ENLCFQS,area with substrate ENLEFQS,area with substrate ENLFFQS,area with substrate ENLHFQS,area with substrate ENLDFQS,area with substrate ENLKFQS,area with substrate ENLLFQS,area with substrate ENLNFQS,area with substrate ENLPFQS,area with substrate ENLRFQS,area with substrate ENLSFQS,area with substrate ENLTFQS,area with substrate ENLVFQS,area with substrate ENLQFQS,area with substrate ENLIFQS,area with substrate ENLMFQS,area with substrate ENLWFQS,area with substrate ENLGFQS
MGESLFKGPRDYNPISSSICHLTNESDGHTTSLYGIGFGPFIITNKHLFRRNNGTLVVQSLHGVFKVKDTTTLQQHLVDGRDMIIIRMPKDFPPFPQKLKFREPQREERICLVTTNFQTKSMSSMVSDTSCTFPSGDGIFWKHWIQTKDGQCGSPLVSTRDGFIVGIHSASNFTNTNNYFTSVPKNFMELLTNQEAQQWVSGWRLNADSVLWGGHKVFMVKPEEPFQPVKEHTQL [A232H],0.0787,0.0619,0.0823,0.0905,–,–,–,–,–,–,–,–,–,–,–,–,–,–
MGESLFKGPRDYNPISSSICHLTNESDGHTTSLYGIGFGPFIITNKHLFRRNNGTLVVQSLHGVFKVKDTTTLQQHLVDGRDMIIIRMPKDFPPFPQKLKFREPQREERICLVTTNFQTKSMSSMVSDTSCTFPSGDGIFWKHWIQTKDGQCGSPLVSTRDGFIVGIHSASNFTNTNNYFTSVPKNFMELLTNQEAQQWVSGWRLNADSVLWGGHKVFMVKPEEPFQPVKEWTQL [A232W],0.0766,0.0621,–,0.0659,0.0772,0.0799,0.0836,0.0727,0.0703,0.067,0.0546,–,–,–,–,–,–,–
MGESLFKGPRDYNPISSSICHLTNESDGHTTSLYGIGFGPFIITNKHLFRRNNGTLVVQSLHGVFKVKDTTTLQQHLVDGRDMIIIRMPKDFPPFPQKLKFREPQREERICLVTTNFQTKSMSSMVSDTSCTFPSGDGIFWKHWIQTKDGQCGSPLVSTRDGFIVGIHSASNFTNTNNYFTSVPKNFMELLTNQEAQQWVSGWRLNADSVLWGGHRVFMVKPEEPFQPVKEATQL [K216R],0.0756,–,0.123,0.0668,–,–,–,–,0.056,–,–,0.0824,0.103,–,–,–,–,–
MGESLFKGPRDYNPISSSICHLTNESDGHTTSLYGIGFGPFIITNKHLFRRNNGTLVVQSLHGVFKVKDTTTLQQHLVDGRDMIIIRMPKDFPPFPQKLKFREPQREERICLVTTNFQTKSMSSMVSDTSCTFPSGDGIFWKHWIQTKDGQCGSPLVSTRDGFIVGIHSASNFTNTNNYFTSVPKNFMELLTNQEAQQWVSGWRLNADSVLWGGHGVFMVKPEEPFQPVKEATQL [K216G],0.0327,0.0584,0.049,0.053,0.0471,0.0454,–,0.0457,0.044,0.0455,0.054,–,0.0391,–,–,–,–,–
MGESLFKGPRDYNPISSSICHLTNESDGHTTSLYGIGFGPFIITNKHLFRRNNGTLVVQSLHGVFKVKDTTTLQQHLVDGRDMIIIRMPKDFPPFPQKLKFREPQREERICLVTTNFQTKSMSSMVSDTSCTFPSGDGIFWKHWIQTKDGQCGSPLVSTRDGFIVGIHSASNFTNTNNYFTSVPKNFMELLTNQEAQQWVSGWRLNADSVLWGGHQVFMVKPEEPFQPVKEATQL [K216Q],0.059,–,0.0898,0.074,0.0678,–,–,–,–,–,–,–,–,–,–,–,–,–
MGESLFKGPRDYNPISSSICHLTNESDGHTTSLYGIGFGPFIITNKHLFRRNNGTLVVQSLHGVFKVKDTTTLQQHLVDGRDMIIIRMPKDFPPFPQKLKFREPQREERICLVTTNFQTKSMSSMVSDTSCTFPSGDGIFWKHWIQTKDGQCGSPLVSTRDGFIVGIHSASNFTNTNNYFTSVPKNFMELLTNQEAQQWVSGWRLNADSVLWGGHIVFMVKPEEPFQPVKEATQL [K216I],0.0711,–,–,–,0.0562,0.0767,0.0669,0.0625,0.0627,–,–,–,–,0.069,–,–,–,–
MGESLFKGPRDYNPISSSICHLTNESDGHTTSLYGIGFGPFIITNKHLFRRNNGTLVVQSLHGVFKVKDTTNLQQHLVDGRDMIIIRMPKDFPPFPQKLKFREPQREERICLVTTNFQTKSMSSMVSDTSCTFPSGDGIFWKHWIQTKDGQCGSPLVSTRDGFIVGIHSASNFTNTNNYFTSVPKNFMELLTNQEAQQWVSGWRLNADSVLWGGHKVFMVKPEEPFQPVKEATQL [T72N],0.0715,0.125,0.0976,0.0661,0.0635,0.0711,–,0.0523,0.0595,0.0567,0.0633,–,0.0704,0.0516,0.0756,0.0606,0.0431,–
MGESLFKGPRDYNPIVSSICHLTNESDGHTTSLYGIGFGPFIITNKHLFRRNNGTLVVQSLHGVFKVKDTTTLQQHLVDGRDMIIIRMPKDFPPFPQKLKFREPQREERICLVTTNFQTKSMSSMVSDTSCTFPSGDGIFWKHWIQTKDGQCGSPLVSTRDGFIVGIHSASNFTNTNNYFTSVPKNFMELLTNQEAQQWVSGWRLNADSVLWGGHKVFMVKPEEPFQPVKEATQL [S16V],0.0655,0.0744,0.101,0.0739,0.0644,–,0.0601,0.0472,0.0624,0.0728,0.0504,–,–,0.065,0.0909,0.076,0.0747,0.0662
MGESLFKGPRDYNPISSSICHLTNESDGHTTSLYGIGFGPFIITNKHLFRRNNGTLVVQSLHGKFKVKDTTTLQQHLVDGRDMIIIRMPKDFPPFPQKLKFREPQREERICLVTTNFQTKSMSSMVSDTSCTFPSGDGIFWKHWIQTKDGQCGSPLVSTRDGFIVGIHSASNFTNTNNYFTSVPKNFMELLTNQEAQQWVSGWRLNADSVLWGGHKVFMVKPEEPFQPVKEATQL [V64K],0.0565,0.0624,0.0693,0.0789,0.0556,0.121,0.0637,0.0603,0.0499,–,0.0439,–,–,–,0.0845,–,0.057,–
MGESLFKGPRDYNPISSSICHLTNESDGHTTSLYGIGFGPFIITNKHLFRRNNGTLVVQSLHGVFKVKDTTTLQQHLVDGRDMIIIRMPKDFPPFPQKLKFREWQREERICLVTTNFQTKSMSSMVSDTSCTFPSGDGIFWKHWIQTKDGQCGSPLVSTRDGFIVGIHSASNFTNTNNYFTSVPKNFMELLTNQEAQQWVSGWRLNADSVLWGGHKVFMVKPEEPFQPVKEATQL [P104W],0.0546,0.0365,0.0517,0.0369,0.0554,0.0576,–,0.0514,0.0563,–,0.03,–,0.0532,–,0.0434,–,–,0.0668
MGESLFKGPRDYNPISSSICHLTNESDGHTTMLYGIGFGPFIITNKHLFRRNNGTLVVQSLHGVFKVKDTTTLQQHLVDGRDMIIIRMPKDFPPFPQKLKFREPQREERICLVTTNFQTKSMSSMVSDTSCTFPSGDGIFWKHWIQTKDGQCGSPLVSTRDGFIVGIHSASNFTNTNNYFTSVPKNFMELLTNQEAQQWVSGWRLNADSVLWGGHKVFMVKPEEPFQPVKEATQL [S32M],0.0681,0.0654,0.0882,–,–,0.0838,0.0595,–,0.0654,0.0759,0.0626,–,0.0972,–,–,–,0.0604,–
MGESLFKGPRDYNPISSSICHLTNESDGHTTSLYGIGFGPFIITNKHLFRRNNGTLVVQSLHGVFKVKDTTTLQQHLVDGRDMIIIRMPKDFPPFPQKLKFREPQREERICLVTTNFQTKSMSSMVSDTSCTFPSGDGIFWKHWIQTKDGQCGSPLVSTRDGFIVGIHSASNFTNTNNYFTSVPKNFMELLGNQEAQQWVSGWRLNADSVLWGGHKVFMVKPEEPFQPVKEATQL [T192G],0.0696,0.0888,0.0779,0.0596,–,0.08,0.0722,0.075,–,–,–,0.0697,0.0625,–,–,0.0734,–,–
MGESLFKGPRDYNPISSSICHLTNESDGHTTSLYGIGFGPFIITNKHLFRRNNGTLVVQSLHGVFKVKDTTTLQQHLVDGRDMIIIRMPKDFPPFPQKLKFREPQREERICLVTTNFQTKSMSSMVSDTSCTFPSGDGIFWKHWIQTKDGQCGSPLVSTRDGFIVGIHSASNFTNTNNYFTSVPKNFMELLHNQEAQQWVSGWRLNADSVLWGGHKVFMVKPEEPFQPVKEATQL [T192H],0.0684,–,0.0998,0.074,0.0651,0.0742,–,0.0668,0.0753,0.0701,0.0617,–,–,–,0.0801,–,0.0751,0.0954
MGESLFKGPRDYNPISSSICHLTNESDGHTTSLYGIGFGPFIITNKHLFRRNNGTLVVQSLHGVFKVKDTTTLQQHLVDNRDMIIIRMPKDFPPFPQKLKFREPQREERICLVTTNFQTKSMSSMVSDTSCTFPSGDGIFWKHWIQTKDGQCGSPLVSTRDGFIVGIHSASNFTNTNNYFTSVPKNFMELLTNQEAQQWVSGWRLNADSVLWGGHKVFMVKPEEPFQPVKEATQL [G80N],0.0765,0.0584,0.0875,0.0673,0.0611,0.0813,0.0835,–,–,0.0833,0.0582,0.0557,0.106,0.0535,0.0647,–,0.092,–
MGESLFKGPRDYNPISSSICHLTNESDGHTTSLYGIGFGDFIITNKHLFRRNNGTLVVQSLHGVFKVKDTTTLQQHLVDGRDMIIIRMPKDFPPFPQKLKFREPQREERICLVTTNFQTKSMSSMVSDTSCTFPSGDGIFWKHWIQTKDGQCGSPLVSTRDGFIVGIHSASNFTNTNNYFTSVPKNFMELLTNQEAQQWVSGWRLNADSVLWGGHKVFMVKPEEPFQPVKEATQL [P40D],0.0827,0.0592,0.0984,–,0.0709,0.0818,–,0.0716,–,0.0931,0.0605,–,–,0.0785,–,–,–,0.0647
MGESLFKGPRDYNPISSSICHLTNESDGHTTSLYGIGFGPFIITNKHLFRRNNGTLVVQSLHGVFKVKDTTTLQQHLVDGRDMIIIRMPKDFPPFPQKLKFREPQREERICLVTTNFQTKSMSSMVSDTSCTFPSGDGIFWKHWIQTKDGQCGSPLVSTNDGFIVGIHSASNFTNTNNYFTSVPKNFMELLTNQEAQQWVSGWRLNADSVLWGGHKVFMVKPEEPFQPVKEATQL [R160N],0.0619,0.0474,0.0934,0.0725,0.0618,0.0621,0.098,0.0724,0.058,–,–,0.0753,–,0.0816,–,0.0618,0.0781,0.0433
MGESLFKGPRDYNPISSSICHLTNESDGHTTSLYGIGFGPFIITNKHLFRRNNGTLVVQSLHGVFKVKDTTTLQQHLVDGRDMIIIRMPKDFPPFPQKLKFREPQREERICLVTTNFQTKSMSSMVSDTSCTFPSGDGIFWKHKIQTKDGQCGSPLVSTRDGFIVGIHSASNFTNTNNYFTSVPKNFMELLTNQEAQQWVSGWRLNADSVLWGGHKVFMVKPEEPFQPVKEATQL [W144K],0.0771,–,–,0.0703,–,0.0742,–,0.0679,0.0654,–,–,–,–,–,–,–,–,–
MGESLFKGPRDYNPISSSICHLTNESDGHTTSLYGIGFGPFIITNKHLFRRNNGTLVVQSLHGVFKVKDTTTLQQHLVDGRDMIIIRMPKDFPPFYQKLKFREPQREERICLVTTNFQTKSMSSMVSDTSCTFPSGDGIFWKHWIQTKDGQCGSPLVSTRDGFIVGIHSASNFTNTNNYFTSVPKNFMELLTNQEAQQWVSGWRLNADSVLWGGHKVFMVKPEEPFQPVKEATQL [P96Y],0.0725,0.0668,–,0.0725,–,–,0.0894,0.0467,0.0516,–,0.0395,–,0.0676,0.0597,0.0983,0.0546,0.0795,0.0557
MGESLFKGPRDYNPISSSICHLTNESDGHTTSLYGIGFGPFIITNKHLFRRNNGTLVVQSLHGVFKVKDTTTLQQHLVDGRDMIIIRMPKDFPPFPQKLKFREPQREERICWVTTNFQTKSMSSMVSDTSCTFPSGDGIFWKHWIQTKDGQCGSPLVSTRDGFIVGIHSASNFTNTNNYFTSVPKNFMELLTNQEAQQWVSGWRLNADSVLWGGHKVFMVKPEEPFQPVKEATQL [L112W],0.0552,–,0.0994,0.062,0.0537,–,–,0.0569,0.0417,0.0492,0.0673,0.0631,0.061,0.0498,–,0.0479,0.0514,0.0526
